Laboratory results as given in the supplement of paper PMC8728848.
This is one part of the list.

How the values were obtained:
Experiment in all cases: glycan array binding signal (z-score within array); higher = stronger binding
Conditions in all cases: glycan notation: IUPAC condensed, linker removed
[1] = molecular target: Fuc(a1-2)Gal(b1-4)GlcNAc(b1-3)Gal(b1-4)GlcNAc(b1-3)Gal(b1-4)GlcNAc
Summary of the method: (§1)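 The binding signal is a Z-score computed within each array and averaged over linkers. Arrays of the same protein sequence at different concentrations or buffers were also averaged together. Data originate from 3228 arrays in the Consortium for Functional Glycomics database, kept only where the protein sequence was available.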

[2] = molecular target: Fuc(a1-2)Gal(b1-4)GlcNAc(b1-3)GalNAc
Summary of the method: as §1

[3] = molecular target: Fuc(a1-2)Gal(b1-4)GlcNAc(b1-3)[Fuc(a1-2)Gal(b1-4)GlcNAc(b1-6)]GalNAc
Summary of the method: as §1

[4] = molecular target: Fuc(a1-2)Gal(b1-4)GlcNAc(b1-3)[Fuc(a1-3)[Gal(b1-4)]GlcNAc(b1-6)]Gal(b1-4)Glc
Summary of the method: as §1

[5] = molecular target: Fuc(a1-2)Gal(b1-4)GlcNAc(b1-6)GalNAc
Summary of the method: as §1

[6] = molecular target: Fuc(a1-2)Gal(b1-4)GlcNAc6S
Summary of the method: as §1

[7] = molecular target: Fuc(a1-2)Gal(b1-4)[Fuc(a1-3)]GlcNAc
Summary of the method: as §1

[8] = molecular target: Fuc(a1-2)Gal(b1-4)[Fuc(a1-3)]GlcNAc(b1-2)Man(a1-3)[Fuc(a1-2)Gal(b1-4)[Fuc(a1-3)]GlcNAc(b1-2)Man(a1-6)]Man(b1-4)GlcNAc(b1-4)[Fuc(a1-6)]GlcNAc
Summary of the method: as §1

[9] = molecular target: Fuc(a1-2)Gal(b1-4)[Fuc(a1-3)]GlcNAc(b1-2)[Fuc(a1-2)Gal(b1-4)[Fuc(a1-3)]GlcNAc(b1-4)]Man(a1-3)[Fuc(a1-2)Gal(b1-4)[Fuc(a1-3)]GlcNAc(b1-2)Man(a1-6)]Man(b1-4)GlcNAc(b1-4)GlcNAc
Summary of the method: as §1

[10] = molecular target: Fuc(a1-2)Gal(b1-4)[Fuc(a1-3)]GlcNAc(b1-3)Gal(b1-4)[Fuc(a1-3)]GlcNAc
Summary of the method: as §1

[11] = molecular target: Fuc(a1-2)Gal(b1-4)[Fuc(a1-3)]GlcNAc(b1-3)Gal(b1-4)[Fuc(a1-3)]GlcNAc(b1-3)Gal(b1-4)[Fuc(a1-3)]GlcNAc
Summary of the method: as §1

[12] = molecular target: Fuc(a1-2)Gal(b1-4)[Fuc(a1-3)]GlcNAc(b1-3)GalNAc
Summary of the method: as §1

[13] = molecular target: Fuc(a1-2)Gal(b1-4)[Fuc(a1-3)]GlcNAc(b1-3)[Neu5Ac(a2-6)Gal(b1-4)GlcNAc(b1-6)]Gal(b1-4)Glc
Summary of the method: as §1

[14] = molecular target: Fuc(a1-2)Gal3S(b1-4)GlcNAc
Summary of the method: as §1

[15] = molecular target: Fuc(a1-2)Gal6S(b1-3)GlcNAc
Summary of the method: as §1

[16] = molecular target: Fuc(a1-2)Gal6S(b1-3)GlcNAc6S
Summary of the method: as §1

Fuc(a1-2)Gal6S(b1-4)Glc = molecular target: Fuc(a1-2)Gal6S(b1-4)Glc
Summary of the method: as §1

[17] = molecular target: Fuc(a1-2)Gal6S(b1-4)Glc6S
Summary of the method: as §1

Fuc(a1-2)[Gal(a1-3)]Gal = molecular target: Fuc(a1-2)[Gal(a1-3)]Gal
Summary of the method: as §1

[18] = molecular target: Fuc(a1-2)[Gal(a1-3)]Gal(b1-3)GalNAc
Summary of the method: as §1

[19] = molecular target: Fuc(a1-2)[Gal(a1-3)]Gal(b1-3)GalNAc(b1-3)Gal(a1-4)Gal(b1-4)Glc
Summary of the method: as §1

[20] = molecular target: Fuc(a1-2)[Gal(a1-3)]Gal(b1-3)GlcNAc
Summary of the method: as §1

[21] = molecular target: Fuc(a1-2)[Gal(a1-3)]Gal(b1-3)GlcNAc(b1-2)Man(a1-3)[Fuc(a1-2)[Gal(a1-3)]Gal(b1-3)GlcNAc(b1-2)Man(a1-6)]Man(b1-4)GlcNAc(b1-4)GlcNAc
Summary of the method: as §1

[22] = molecular target: Fuc(a1-2)[Gal(a1-3)]Gal(b1-3)GlcNAc(b1-2)Man(a1-3)[Fuc(a1-2)[Gal(a1-3)]Gal(b1-3)GlcNAc(b1-2)Man(a1-6)]Man(b1-4)GlcNAc(b1-4)[Fuc(a1-6)]GlcNAc
Summary of the method: as §1

[23] = molecular target: Fuc(a1-2)[Gal(a1-3)]Gal(b1-3)GlcNAc(b1-3)GalNAc
Summary of the method: as §1

[24] = molecular target: Fuc(a1-2)[Gal(a1-3)]Gal(b1-3)GlcNAc(b1-6)GalNAc
Summary of the method: as §1

[25] = molecular target: Fuc(a1-2)[Gal(a1-3)]Gal(b1-4)Glc
Summary of the method: as §1

[26] = molecular target: Fuc(a1-2)[Gal(a1-3)]Gal(b1-4)GlcNAc
Summary of the method: as §1

[27] = molecular target: Fuc(a1-2)[Gal(a1-3)]Gal(b1-4)GlcNAc(b1-2)Man
Summary of the method: as §1

[28] = molecular target: Fuc(a1-2)[Gal(a1-3)]Gal(b1-4)GlcNAc(b1-2)Man(a1-3)[Fuc(a1-2)[Gal(a1-3)]Gal(b1-4)GlcNAc(b1-2)Man(a1-6)]Man(b1-4)GlcNAc(b1-4)GlcNAc
Summary of the method: as §1

[29] = molecular target: Fuc(a1-2)[Gal(a1-3)]Gal(b1-4)GlcNAc(b1-2)Man(a1-3)[Fuc(a1-2)[Gal(a1-3)]Gal(b1-4)GlcNAc(b1-2)Man(a1-6)]Man(b1-4)GlcNAc(b1-4)[Fuc(a1-6)]GlcNAc
Summary of the method: as §1

[30] = molecular target: Fuc(a1-2)[Gal(a1-3)]Gal(b1-4)GlcNAc(b1-3)GalNAc
Summary of the method: as §1

[31] = molecular target: Fuc(a1-2)[Gal(a1-3)]Gal(b1-4)GlcNAc(b1-3)[Fuc(a1-2)[Gal(a1-3)]Gal(b1-4)GlcNAc(b1-6)]GalNAc
Summary of the method: as §1

[32] = molecular target: Fuc(a1-2)[Gal(a1-3)]Gal(b1-4)GlcNAc(b1-6)GalNAc
Summary of the method: as §1

[33] = molecular target: Fuc(a1-2)[Gal(a1-3)]Gal(b1-4)[Fuc(a1-3)]Glc
Summary of the method: as §1

[34] = molecular target: Fuc(a1-2)[Gal(a1-3)]Gal(b1-4)[Fuc(a1-3)]GlcNAc
Summary of the method: as §1

[35] = molecular target: Fuc(a1-2)[Gal(a1-3)]Gal(b1-4)[Fuc(a1-3)]GlcNAc(b1-3)GalNAc
Summary of the method: as §1

B1: B725 (Bifidobacterium sp) (protein)
chain: MNNTTRAVIATAAIGALLIPLAGCGNTTTSSGKTELTVWSWDASIDRAAKSFMKANPDITVKVSNVGSTEETYTALNNAAQAGSGLPDVTLIEYLAIPQFVHSDTLMDLSKVYNTAKLKDTFTPGTWNSVNINGGLYAMPADSGPMAYFYDKDVFDKAGISEPPTTWDEFYEDAKKIRATGSYITSDSGDAGLFNAMMWAMGGHAYKLNDDKLTINIAKDKGAQRFMDLWQKMRDEDLIDVHTKTWTDDWMKSLGDGSIASLISGAWMANNLLQGVPQATGKFRVALLPTIDGTPINGEYGGSGLAITKKIPDGKLDAAKKFVEYVTTNDEGIDARVSNGSFPATTKTLNQKDFLAKTTLRNTDGSDNEFFGGQKYNEIFSQAAKDVTGKWEFLPFEPYARSVYNDNMGSFFAGKTSFRTAADNWQKALKDYAKDQGFTVQ
[1]
  glycan array binding signal (z-score): -0.08
[2]
  glycan array binding signal (z-score): -0.185
[3]
  glycan array binding signal (z-score): -0.196
[4]
  glycan array binding signal (z-score): -0.214
[5]
  glycan array binding signal (z-score): -0.219
[6]
  glycan array binding signal (z-score): -0.206
[7]
  glycan array binding signal (z-score): -0.236
[8]
  glycan array binding signal (z-score): -0.214
[9]
  glycan array binding signal (z-score): -0.197
[10]
  glycan array binding signal (z-score): -0.216
[11]
  glycan array binding signal (z-score): -0.201
[12]
  glycan array binding signal (z-score): -0.201
[13]
  glycan array binding signal (z-score): -0.217
[14]
  glycan array binding signal (z-score): -0.229
[15]
  glycan array binding signal (z-score): -0.251
[16]
  glycan array binding signal (z-score): -0.198
Fuc(a1-2)Gal6S(b1-4)Glc
  glycan array binding signal (z-score): -0.199
[17]
  glycan array binding signal (z-score): -0.219
Fuc(a1-2)[Gal(a1-3)]Gal
  glycan array binding signal (z-score): -0.222
[18]
  glycan array binding signal (z-score): -0.213
[19]
  glycan array binding signal (z-score): -0.238
[20]
  glycan array binding signal (z-score): -0.219
[21]
  glycan array binding signal (z-score): -0.198
[22]
  glycan array binding signal (z-score): -0.179
[23]
  glycan array binding signal (z-score): -0.233
[24]
  glycan array binding signal (z-score): -0.203
[25]
  glycan array binding signal (z-score): -0.231
[26]
  glycan array binding signal (z-score): -0.232
[27]
  glycan array binding signal (z-score): -0.216
[28]
  glycan array binding signal (z-score): -0.228
[29]
  glycan array binding signal (z-score): -0.188
[30]
  glycan array binding signal (z-score): -0.222
[31]
  glycan array binding signal (z-score): -0.159
[32]
  glycan array binding signal (z-score): -0.235
[33]
  glycan array binding signal (z-score): -0.22
[34]
  glycan array binding signal (z-score): -0.22
[35]
  glycan array binding signal (z-score): -0.208
